# Test results as given in the BET-seq Pho4 binding data (Le et al. 2018).
# Some of the results follow. Values were computed here from the reads of four pooled replicates and scatter widely.
# Target: T1, Pho4 (S. cerevisiae) (UniProt P07270)
# T1 sequence: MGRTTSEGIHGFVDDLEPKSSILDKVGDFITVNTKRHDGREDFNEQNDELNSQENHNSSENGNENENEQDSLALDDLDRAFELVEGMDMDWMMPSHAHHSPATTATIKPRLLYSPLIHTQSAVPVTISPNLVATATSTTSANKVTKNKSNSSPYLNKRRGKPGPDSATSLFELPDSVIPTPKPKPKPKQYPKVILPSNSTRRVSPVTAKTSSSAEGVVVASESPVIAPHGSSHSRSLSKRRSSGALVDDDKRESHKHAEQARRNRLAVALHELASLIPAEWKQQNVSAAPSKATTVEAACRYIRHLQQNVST
# Test: relative binding free energy (BET-seq); higher = weaker binding
# Conditions: reference: library average
row,Sequence,relative binding free energy [kcal/mol]
1,GTTGACACGTGGAGTT,0.01
2,AGTTCCACGTGGGCGG,0.01
3,TAATGCACGTGTTACG,0.01
4,TTAGTCACGTGCTAGT,-0.14
5,TGAAACACGTGGGGTC,-0.11
6,CGGCGCACGTGTAGGG,-0.05
7,GCGTCCACGTGGGAGG,-0.06
8,CGTGGCACGTGAGGGG,0.14
9,TTGGTCACGTGAGTCC,0.42
10,GTAGTCACGTGTTCTG,0.17
11,GATGGCACGTGATTAG,0.12
12,TAAAGCACGTGTGGCG,-0.06
13,GGCTTCACGTGGAGGA,0.18
14,AGTTGCACGTGAATTG,0.22
15,TCTGGCACGTGAGAGT,-0.02
16,TTTCACACGTGATGGG,0.37
17,GCTGACACGTGAGGTA,0.25
18,ATAGTCACGTGGGAAT,0.09
19,GGTAACACGTGGGCTT,-0.06
20,CCGTGCACGTGATGGT,0.04
21,TTTCTCACGTGTACTG,0.27
22,AGATACACGTGATGGG,0.2
23,ATGATCACGTGAGGTG,0.36
24,ATGAGCACGTGGTAGA,-0.18
25,TATATCACGTGTCTTT,0.09
26,CTATTCACGTGTTGGG,0.24

row,Sequence,relative binding free energy [kcal/mol]
1,AATGGCACGTGTAGGA,0.08
2,GTTTGCACGTGTTGCT,0.06
3,TATTGCACGTGAGACT,0.13
4,ATGCGCACGTGGGGGT,-0.3
5,TGGGACACGTGGGTGG,-0.02
6,TTTGACACGTGTCATA,-0.03
7,AATATCACGTGTGAAG,0.24
8,GCGGGCACGTGCAGTG,-0.08
9,TTGATCACGTGGGTGA,0.09
10,ATGGGCACGTGGTGAA,-0.03
11,TCCGGCACGTGGGATT,-0.09
12,GCGAGCACGTGTTGGG,-0.04
13,AAATTCACGTGAAATT,0.47
14,TTATGCACGTGGTTCG,-0.04
15,TTATACACGTGCGTTG,0.04
16,GAGGGCACGTGGCGGG,-0.1
17,AGTGGCACGTGCTGGT,-0.19
18,ATAGGCACGTGGGATT,-0.18
19,TGTGGCACGTGAAGAG,0.18
20,TCGGGCACGTGCAGGT,-0.13
21,GGGTACACGTGGATAG,-0.06
22,GTATTCACGTGGTGGC,0.3
23,CCTTTCACGTGTGGGT,0.42
24,AAGTGCACGTGTGTAG,-0.02
25,GTATTCACGTGACGTG,0.48
26,AGGGGCACGTGTCGTG,-0.05

row,Sequence,relative binding free energy [kcal/mol]
1,AGCGGCACGTGATGTT,-0.01
2,CTAGGCACGTGGGGCG,-0.27
3,GTTAACACGTGGGGAT,-0.13
4,CGTGACACGTGTTCGT,0.06
5,ATTGGCACGTGTGCTA,-0.06
6,TTGATCACGTGGGACA,-0.01
7,GTGGTCACGTGTTGCC,0.15
8,GGAGCCACGTGAAGGG,0.23
9,TGAATCACGTGAGTTA,0.28
10,GAAGTCACGTGGTACT,0.19
11,CAGGGCACGTGTGAAG,-0.02
12,TGTGTCACGTGTGAAC,0.08
13,ATGAGCACGTGAAGTA,0.27
14,TAAAGCACGTGATAGG,0.02
15,CATGTCACGTGGCGTT,0.06
16,TCGTTCACGTGAGGCG,0.42
17,TTGGCCACGTGGCGAG,-0.13
18,TTAGTCACGTGCTATT,-0.1
19,ATTTGCACGTGTACGT,0.2
20,TAGCTCACGTGTTGCG,0.24
21,TATTCCACGTGGCTGT,0.12
22,TGCTTCACGTGGGTCT,0
23,GCGGCCACGTGGGAGG,-0.19
24,TGGTTCACGTGAGGGA,0.39
25,TTTGACACGTGGATTG,0.02
26,TGTGACACGTGCAGCG,-0.02

row,Sequence,relative binding free energy [kcal/mol]
1,AGCCTCACGTGTGGGT,0.18
2,TGGCACACGTGTCGGT,-0.02
3,AGTTACACGTGTTGAT,0.09
4,CATATCACGTGAGGTG,0.29
5,GTTGGCACGTGAGCCG,0.36
6,TACAACACGTGTGTTT,0.05
7,GTAGGCACGTGGGGAG,-0.3
8,GTCTTCACGTGCTTTT,0.35
9,TTTTTCACGTGCAAGG,0.28
10,GGATACACGTGGGGCA,0.09
11,GCTGACACGTGGGAGT,-0.06
12,GGGGACACGTGATTAT,0.12
13,TTTGACACGTGTGCCT,-0.03
14,ATCGTCACGTGTGTGC,0.06
15,GGAGGCACGTGGCTAT,-0.19
16,ATATTCACGTGAGGAA,0.16
17,CGAGGCACGTGGTTGA,-0.3
18,TTTGGCACGTGATGGT,0.04
19,GGAATCACGTGGTCTT,0.21
20,TTTATCACGTGTATAC,-0.01
21,TACTTCACGTGGGTCT,0.32
22,CTTTGCACGTGAGAGT,0.26
23,TATTCCACGTGGAGGT,-0.14
24,GCGGACACGTGTGGTT,0.1
25,GTGTTCACGTGAAGCT,0.28
26,TGCGGCACGTGTGCGG,-0.04

row,Sequence,relative binding free energy [kcal/mol]
1,TGGGGCACGTGAGAGG,0.14
2,CGTATCACGTGTGTAA,0.14
3,CTGTGCACGTGGGGAT,-0.21
4,GAATGCACGTGATTGA,0.27
5,GTACTCACGTGCTTGG,0.31
6,AAGCCCACGTGGGGGG,-0.28
7,TGGTGCACGTGTCTAT,-0.01
8,GTTATCACGTGTTTGT,0.2
9,GCGCGCACGTGTGTGG,-0.11
10,CATCGCACGTGTGGTT,0.07
11,GTAAACACGTGTTGGC,-0.02
12,GTGATCACGTGAATGA,0.34
13,TTAGTCACGTGGATAT,0.06
14,TGGGTCACGTGGACAT,0.15
15,GGGAACACGTGTGCTT,0.24
16,TGAAGCACGTGGACGT,0.01
17,TGGCTCACGTGGTCTG,0.02
18,GTTCGCACGTGAATGT,0.24
19,TTGATCACGTGATAAG,0.36
20,AGCTTCACGTGATGTT,0.21
21,TAGTACACGTGTTTCG,0.14
22,TTAGGCACGTGAGGGT,0.14
23,CGATTCACGTGGGGGC,0.42
24,AGATTCACGTGGCGGA,0.26
25,GGGGGCACGTGTTCAT,-0.14
26,GGAGGCACGTGGCTTG,-0.17

row,Sequence,relative binding free energy [kcal/mol]
1,CGGTTCACGTGAGTGC,0.24
2,GTAGACACGTGTGTTT,0
3,TGATTCACGTGTTGTG,0.28
4,TGTGGCACGTGTTTGA,-0.04
5,CTTATCACGTGAGTTT,0.25
6,GTTGACACGTGGGAGG,0.05
7,GTAAACACGTGTAGGG,0.03
8,TGTGTCACGTGCTTTT,-0.01
9,CTGATCACGTGTGTGT,0.1
10,GATGGCACGTGTGGCT,0.09
11,TTAATCACGTGATGTG,0.07
12,CTAGGCACGTGGAGCG,-0.12
13,CTGTACACGTGATGGG,0.19
14,GTTTGCACGTGGCAGA,0.1
15,CATGGCACGTGGCGGT,-0.16
16,TGAGACACGTGGTGCG,-0.11
17,AGTATCACGTGTGGCT,0.11
18,GTGAACACGTGTTCGG,0.02
19,ATTAACACGTGGTTTT,0.01
20,TGGCTCACGTGTTTGC,0.26
21,GTGAGCACGTGTAGTC,0.01
22,TAGAGCACGTGTTTAT,-0.15
23,AGTTGCACGTGGACTG,0.07
24,AATGGCACGTGTGTGA,0.05
25,CGTGTCACGTGTCAGG,0.01
26,CGGGTCACGTGAATTT,0.33

row,Sequence,relative binding free energy [kcal/mol]
1,AGTTCCACGTGGTAGG,-0.06
2,TACTACACGTGGTGTT,-0.08
3,AAGGTCACGTGTAGTA,0.06
4,GGGTACACGTGTGCGT,0.14
5,GGATGCACGTGTGTAG,-0.05
6,AGTAACACGTGTCGGG,-0.01
7,TAGGGCACGTGGTAGA,-0.11
8,AAGTACACGTGTTGTA,-0.06
9,CTGGGCACGTGTTTAG,-0.13
10,AACGGCACGTGTTAAG,0.14
11,AAATCCACGTGTTTTT,0.16
12,AGGCGCACGTGTGTAT,-0.01
13,ATGTTCACGTGCCGGT,0.13
14,TGCAACACGTGCTGGT,-0.02
15,TTACGCACGTGTTTTG,0
16,GGGGACACGTGTAACG,0.25
17,TTAGACACGTGTGGCT,-0.05
18,TGACTCACGTGTGCGG,0.32
19,AGGGGCACGTGGGGCA,-0.26
20,TTTATCACGTGTGAGA,0.21
21,GTGCACACGTGGAAGG,0.08
22,GATGGCACGTGGTAAA,-0.07
23,ATGCTCACGTGTTTTA,0.12
24,CATGGCACGTGTTATA,0.03
25,CTTTTCACGTGAGGTG,0.41
26,CTATGCACGTGCTGGG,-0.08

row,Sequence,relative binding free energy [kcal/mol]
1,AGCTACACGTGAGGGA,0.28
2,AGGTACACGTGTGTCT,0.03
3,ATGGACACGTGGGATG,-0.17
4,TAAGTCACGTGGGGAT,-0.04
5,GGGAGCACGTGGATTT,0.05
6,TATATCACGTGAGAAT,0.48
7,ATTCTCACGTGGCTGT,0.28
8,AATGTCACGTGGTAAT,0.16
9,TATATCACGTGGTGGG,0.12
10,TTCTGCACGTGAGGGG,0.15
11,ATGTTCACGTGATCTT,0.11
12,GAGGGCACGTGTAGGG,-0.01
13,TTAATCACGTGGTCTG,0.03
14,AGAGGCACGTGAGGAG,0.15
15,TAGTTCACGTGTTGAA,0.26
16,CGTAGCACGTGTATTA,-0.05
17,GGGTACACGTGGAAGT,0.26
18,TGATTCACGTGCGGCT,0.25
19,TGGAACACGTGCGTTG,0.12
20,GGATACACGTGGGGCG,0.01
21,AGTAGCACGTGCTGTA,-0.09
22,AAGTTCACGTGGGCGT,0.19
23,GCGTGCACGTGAATGT,0.21
24,GGTCGCACGTGGAAGG,0.01
25,AGGTTCACGTGGTTTG,0.35
26,CGGTTCACGTGAGAGT,0.35

row,Sequence,relative binding free energy [kcal/mol]
1,AGGGTCACGTGCAGCG,0.14
2,GGTGTCACGTGAATGT,0.29
3,CGAAACACGTGGGCGG,-0.08
4,TTCTACACGTGTTTCG,0.21
5,TACATCACGTGTTGTA,0.11
6,GTGCGCACGTGAAAGT,0.26
7,TGCGTCACGTGGTAAT,-0.11
8,GTTATCACGTGCTTGA,0.11
9,CGGGTCACGTGGAGCG,0.09
10,GTCGTCACGTGGGATT,0.06
11,TAATGCACGTGAGGGA,0.3
12,TCTAACACGTGGTTTT,-0.01
13,TACTTCACGTGGTTTG,0.24
14,GGTGCCACGTGAGAGG,0.14
15,GCAGGCACGTGGTGAT,-0.26
16,GTTGACACGTGTACGT,0.13
17,GGAAGCACGTGTTTTT,-0.06
18,GAGTGCACGTGATTCG,0.24
19,ATGCTCACGTGTTTAG,0.22
20,ACGTACACGTGGGATG,0
21,GTGTTCACGTGGAGTG,0.36
22,GGGATCACGTGCGATG,0.14
